Survival data for 25 molecules are collected here from PubChem BioAssay AID463173 (ICCB-Longwood Screening Facility, Harvard Medical School, 2010).

About 1,700 (3.3%) of roughly 52,000 compounds were called active. Cut-off read from the data, not from the text of the source: active = survival mostly below about 52% (no sharp cut-off); inactive = mostly above about 56%. Some of the results follow.

The test system of this experiment is Wild type. Kind of experiment: growth inhibition of S. aureus wild type versus tarO mutant, primary screen, teichoic acid synthesis inhibitors, RN4220, OD600 (AID 463173). The note with it: S. aureus RN4220 wild type/DeltatarO growth, OD600, 18 h, hits give low values, screened at 18.75 µg/mL (by protocol).
In the case of `NC(=O)C1CCN(C(=O)c2cccc(NC(=O)c3nsc4ccccc34)c2)CC1`, the survival was inactive: 79%. Consider `CCN(CC)S(=O)(=O)c1nnc(NC(=O)COc2ccccc2F)s1`, for which the survival is inactive: 101%.

In the case of `COCCN(C(=O)c1ccccc1)c1nnc(-c2ccncc2)s1`, the survival was inactive: 105%. On to `Nc1c(C(=O)Nc2ccc(OC(F)(F)F)cc2)nnn1Cc1ccccc1`, for which the survival was inactive: 73%. Take `CCOc1ccc(CNC(=O)CSc2cc(=O)n(CC)c3ccccc23)cc1`: the survival was inactive: 71%. The figure for `Cn1c(=O)c2c(nc(SCC(=O)Nc3ccccc3)n2Cc2ccccc2F)n(C)c1=O` is inactive: 74%; for `O=C(C1COc2ccccc2O1)N(Cc1cccnc1)c1nc2ccc(Cl)cc2s1` (stereo not given) it is inactive: 71%. `Cc1ccc(C#N)c(=O)n1CC(=O)Nc1ccccc1C(F)(F)F`: the survival is inactive: 140%. The figure for `Fc1ccc(CNc2ncnc3onc(-c4ccc(F)cc4)c23)cc1` is inactive: 77%; for `CCc1c(CN2CCN(c3cccc(C)c3C)CC2)csc1C` it is inactive: 86%; for `CCc1cccc(C)c1Nc1c(-c2ccccc2)nc2sccn12` it is inactive: 35%.

With `CCOC(=O)N1CCN(Cc2nc3cc(NC(=O)c4ccccc4[N+](=O)[O-])ccc3n2C(C)C)CC1`, the survival was inactive: 112%. Then `Cc1ccc(-n2c3nc(=O)[nH]c(=O)c-3cc3c(C)nn(-c4ccccc4)c32)cc1Cl`, with inactive: 88%.

Take `O=C(NC1CCCCC1)c1ccc(Cn2c(SCc3ccc(F)cc3)nc3cccnc32)cc1`: the survival was active: 0%. With `CCOc1no[n+]([O-])c1-c1ccccc1`, the survival is inactive: 87%. Then `Cc1ccc2c(c1)-c1onc(C(=O)N3CCN(c4ccc(Cl)cc4)CC3)c1CO2`, with inactive: 88%; and `CCCNC(=O)C1CCC(Cn2c(=O)c3sccc3n(Cc3ccccc3F)c2=O)CC1` (stereo not given), with inactive: 77%.

`COCCCn1c(=N)c(C(=O)NCc2ccco2)cc2c(=O)n3ccccc3nc21`: the survival is inactive: 128%. The figure for `Cc1cccc(C)c1NC(=O)NCCc1c[nH]c2ccccc12` is inactive: 86%; for `COc1ccccc1CNC(=O)CCn1nc(C)c2c(C)n(-c3ccccc3)nc2c1=O` it is inactive: 73%.

For `O=C(c1ccccc1NS(=O)(=O)c1cccc2nsnc12)N1CCOCC1`, the survival was inactive: 111%.

For the molecule `CCCCN(CC)C(=O)CSc1nc2n[nH]c(C)c2c(=N)n1-c1cccc(OC)c1`, the survival was inactive: 120%. As to `Cc1oc(-c2ccc(Cl)cc2)nc1CS(=O)CC(=O)N1CCN(c2cccc(C(F)(F)F)c2)CC1` (stereo not given), the survival was inactive: 80%. Then `COc1cccc(N2CCN(c3ncnc4c3nc3n4CCCCC3)CC2)c1`, with active: -3%. Then `O=S(=O)(c1ccccc1)c1nnn2c1nc(NCc1ccc(F)cc1)c1sccc12`, with inactive: 96%.
